The chains are these.
B1: chr2:26491064:26491065:+_ENSMUSG00000036186_ENSMUST00000074240|mus_hu|FALSE|FALSE (ssRNA)
RNA: GGGAGUUCUACAGUCCGACGAUCGAAGUCAGCCAUGAGCAGGACCUGGCCAACCAGCGCCGGCAGGGAAGGCAGGUCUCCCAGGUUCGCCUUGAGGAAGCUGAGGGUCAUCUCCCGGAAUUCCUUGAUGGAGGUGCCCCGGGUCAACAGAGGAUUGAGCAUCA
B2: chr18:52893488:52893489:-_ENSG00000196628_ENST00000354452|hu_hu|hu_hu_hu_mus_True|8_8 (ssRNA)
RNA: GGGAGUUCUACAGUCCGACGAUCUAUUUAGACCAUUUCCGCGGAGUUAUGGCAUUUACUCAGUGCUGAUAGGUGGAAAAACUACUUCAACAGGGAUUUUUUUUUUCCUUAAUACAUGCCAAGAUUGGUGUGGCUGUAAAACAGCAACAGAGGAUUGAGCAUCA
B3: chr4:76721835:76721836:+_ENSG00000138768_ENST00000264904|hu_mus|hu_hu_hu_mus_True|28_88 (ssRNA)
RNA: GGGAGUUCUACAGUCCGACGAUCGUUUGGCUGGGGUUUCUGAGACGUCUGGAAUACUAACUCAUGUUUGCUAAUAAAUCCUAGUUUCUCUAUGAAAUUCUCUUUGCAAUCCUCUUCCUCUAUUAGUUGCUUUAGUUUCUCUUUCAACAGAGGAUUGAGCAUCA
B4: chr1:163112212:163112213:-_ENSG00000143248_ENST00000313961|hu_hu|hu_hu_hu_mus_False|8_108 (ssRNA)
RNA: GGGAGUUCUACAGUCCGACGAUCUUUAUUUAUCCAGAAGAGUGAGUUACAUACUAGGCAAAGUAUUGGAUACAAUAAUCAGGAAACAAACACUAUUGGUCCAGAAUUUAAAACUUUAUGAGCGAAGGCUUACAAAUGGACUUACAACAGAGGAUUGAGCAUCA
B5: chr16:91657502:91657503:+_ENSMUSG00000022961_ENSMUST00000114036|mus_hu|FALSE|FALSE (ssRNA)
RNA: GGGAGUUCUACAGUCCGACGAUCUCUAGGUGCUAACCUAUAUGGCCUGGGUGCUAUUCUAUAGGACCUGGGUGCUAUCCUGUAGGGUCUAGGUGACAUCCUAUAGGGAUCAGGAGUUAGUCUGUAGGGAUCAUGGCCUAAUCUCAACAGAGGAUUGAGCAUCA
B6: chr2:5814250:5814251:-_ENSMUSG00000025816_ENSMUST00000102981|mus_hu|mus_mus_mus_hu_True|1_18 (ssRNA)
RNA: GGGAGUUCUACAGUCCGACGAUCUUCCUUUCCGGUUUCUGAAUUUCUGGUAGAACUGCACAGAAUGGUUUGAUAACUUCUAAAAAUUUGAUGCCCAUGGCUGCUGCUGGGGAGGCCCGGCGGGCACCCGCGGCCUCGCAGCUGCAACAGAGGAUUGAGCAUCA
B7: chr1:45984709:45984710:-_ENSG00000117450_ENST00000319248|hu_hu|FALSE|FALSE (ssRNA)
RNA: GGGAGUUCUACAGUCCGACGAUCUUUUAGCAUUUCCUGAAGACAUCUUCCUAUCAGCAGUCCCAACACAAGUCGCAGAAACUAACCACCGACACCAGGCAAGAACAAGACGCGCAAGAGCUCUCCGGGGCGCUGCCUUUAUAGCAACAGAGGAUUGAGCAUCA
B8: chr22:19452774:19452775:-_ENSG00000070010_ENST00000399523|hu_hu|hu_hu_hu_mus_False|8_8 (ssRNA)
RNA: GGGAGUUCUACAGUCCGACGAUCCUUCUCAUUGUAGUUGAUAGCAAUCACAUCUCCAGUCGUCAGACAGGCGAAGUUUCUCAAUGCAUUUUCUAAUACCGCUUUAGGGUUGGUAAUAUCCAGGAAGUCAGGGCUCUGAGGCUGCAACAGAGGAUUGAGCAUCA
B9: chr3:176740097:176740098:-_ENSG00000177565_ENST00000430069|hu_mus|hu_hu_hu_mus_True|38_108 (ssRNA)
RNA: GGGAGUUCUACAGUCCGACGAUCUGUUUUUUACACCACAAAAGGAGGCACUUUCAGUAUCUGCAAAAGGUGUUUAGUCCUAAAACAUACUCACCUAGAGAAUAAUUCAGGAAAACAAUCUGUUACACUCUAAGACCUACUCCACAACAGAGGAUUGAGCAUCA
B10: chr11:29608523:29608524:+_ENSMUSG00000020458_ENSMUST00000102843|mus_hu|FALSE|FALSE (ssRNA)
RNA: GGGAGUUCUACAGUCCGACGAUCAGAAAAGUCAUCUGAGAAACUGAUUUUCUCUUCAACUUUGGGUUGUAUGUUCUUCAAAGAAAGGUCAUGGGGCAAUUCUGUGCAAGGCAAUGACCCAGCUCCAUCCGGGGCAUUAGCAAUCAACAGAGGAUUGAGCAUCA
B11: 84646022_84649821_1235_CDS_ENSG00000065615_ENST00000369681|human|control|control (ssRNA)
RNA: GGGAGUUCUACAGUCCGACGAUCGGAUAUUUUAAAAUUGCCCUCAGGACUGCUUACAGAAACAAAAUCUCCAAUCUGAAGACGAUCAAGCUCUGGUGUGAAGAGUCCAGUGGGAUAGAUUUUUAUCAAAAAGUAGAUGUAUUUCAACAGAGGAUUGAGCAUCA
B12: chr2:179515052:179515053:+_ENSMUSG00000000305_ENSMUST00000000314|mus_hu|mus_mus_mus_hu_False|38_58 (ssRNA)
RNA: GGGAGUUCUACAGUCCGACGAUCGCUGUCCCAUGCAGUCACCGUGAACGCCACCUGCUCGGAGGGGACCUGCAGCUCCCUAGUGGCGAAGACUGUCCCAUCCGCCCCAACUUUGAAGUCCAUGCUGUUGGUCUCAUAUUGUGUCAACAGAGGAUUGAGCAUCA
B13: 43581398_43581628_2404_CDS_ENSMUSG00000028467_ENSMUST00000030189|mouse|control|control (ssRNA)
RNA: GGGAGUUCUACAGUCCGACGAUCUUCGGACUCCAUCACAGCCAGACACACAGGCCACAUGUCCUCCAGGAAGCCUUGAUCACCCGUCAGGUAAUAGUCCCGAUAAAUUUGCAAUACAAACUUCAGGUUCAGGUCCUUCCAGUCCAACAGAGGAUUGAGCAUCA
B14: chr17:66251843:66251844:+_ENSG00000196704_ENST00000359783|hu_mus|FALSE|FALSE (ssRNA)
RNA: GGGAGUUCUACAGUCCGACGAUCAAGUAUGUGUCCGAUCUCAUGGGUUAAAGUCUUACAGGAUCGCAACAGCAAAACACUAGUGAUUUCAGGGAUGUAAUAGUUAUCAAAAAUGGAGUAGUCAGUGGGAGACGUUAGCUGCAGCAACAGAGGAUUGAGCAUCA
B15: 80640421_80640541_171_3pUTR_ENSMUSG00000034994_ENSMUST00000047864|mouse|control|control (ssRNA)
RNA: GGGAGUUCUACAGUCCGACGAUCGAUGCCAGCCUUGCACACAAGGGAGUCGGUCAGCGUGGACUUGCCGUGGUCCACAUGGGCGAUGACUGACAUGUUCCGGAUGUUGGCUUUCUUGUCCAUGAUGGCACGGAUCUGAUCUACCAACAGAGGAUUGAGCAUCA
B16: chr6:150114741:150114742:+_ENSG00000120265_ENST00000367380|hu_mus|motif|central (ssRNA)
RNA: GGGAGUUCUACAGUCCGACGAUCCCCCGAGGACAGGAGCAUUGGGUCAUCCUUUUUGACAUUAGUUAUUGAGUCAUCGGCGGGUUCUUUAAUGUGAUCAAUUCCAAUGACUUUUCCACUAUUUCCAACCAUCCGUGCAAAACACAACAGAGGAUUGAGCAUCA
B17: 36950683_36950803_2544_CDS_ENSMUSG00000024811_ENSMUST00000025729|mouse|control|control (ssRNA)
RNA: GGGAGUUCUACAGUCCGACGAUCGGCCAACAAUAAAGCACAAAGCUGUGUCCGUCCCUUUUGGGCUGCUUCAUGUAACGGUGUGAAAGCCCAUUUGUCCGUGGCAUUGACACACGCAUUGUACUUUAUCAGCAAAGCUGCUACCAACAGAGGAUUGAGCAUCA
B18: chr2:187541933:187541934:+_ENSG00000138448_ENST00000261023|hu_hu|motif|central (ssRNA)
RNA: GGGAGUUCUACAGUCCGACGAUCAAAAAAGCCCAUCCUGUACAUUACAAAUACCAAAACAGCCAGUAGCAACAAUCCUGCGGGAACUGCUAAAAUGAUCACCCACACAGGCACAGGCAUGGGCGCUGGCUGAAUGCCCCAGGUCAACAGAGGAUUGAGCAUCA
B19: chr16:94651144:94651145:+_ENSMUSG00000040785_ENSMUST00000117648|mus_hu|mus_mus_mus_hu_True|28_48 (ssRNA)
RNA: GGGAGUUCUACAGUCCGACGAUCAUUUUCUUGAAUCAAGUGGCGAAUAACAUAGUCCACUGCUUCAUUUAGAAAAUUUCUGCUAGAAAAGCAUGUUGUAUAGUCUUCCGUGCUCAGAACUUUCCAAGAAAGCAAUUCUUUGAGCAACAGAGGAUUGAGCAUCA
B20: chr3:90056536:90056537:+_ENSMUSG00000052310_ENSMUST00000015467|mus_hu|motif|central (ssRNA)
RNA: GGGAGUUCUACAGUCCGACGAUCUCCUUAUGUAUAGUGUCCAACCUCUGAUUCUAGCAGUCAAGUGUCUUCCCCAAUCCGGAUGUCCCCUGAUAUGUCUCUAGCGACUUGACCAUCUCUUGUUCCUUGGGACUGGGGCCAGCCCAACAGAGGAUUGAGCAUCA
B21: chr7:56126341:56126342:+_ENSG00000146731_ENST00000540286|hu_mus|hu_hu_hu_mus_True|88_88 (ssRNA)
RNA: GGGAGUUCUACAGUCCGACGAUCCAUGUUUCUCCUCUUGGCUCUGCGCAGAGCAACGAUCCCUUCUUUCGCAAGGGCAUCUAAGGAAAAGGGGUCAAUCCCCUUUUGAUUAAUAACGACAAAUCCUUUAUCUGAGUCACCACACAACAGAGGAUUGAGCAUCA
B22: 71365727_71368379_1618_CDS_ENSG00000124383_ENST00000244230|human|control|control (ssRNA)
RNA: GGGAGUUCUACAGUCCGACGAUCUACUACAUCAUCCCAAGCCUGAUCUCUUAUCCUCUGUUUAAUGAUAUCUUCCAGUUGAAGGGUGGUUUCCUCUGUAAUCACAGGUGCCAUCCGGACAGCAUGGUCAAAGUGUAGGGUCUCCAACAGAGGAUUGAGCAUCA

The list shows a part of the results.

The target of this assay is T1, UNK ZnF1-3 (human, UniProt Q9C0B0 31-174).
T1 sequence: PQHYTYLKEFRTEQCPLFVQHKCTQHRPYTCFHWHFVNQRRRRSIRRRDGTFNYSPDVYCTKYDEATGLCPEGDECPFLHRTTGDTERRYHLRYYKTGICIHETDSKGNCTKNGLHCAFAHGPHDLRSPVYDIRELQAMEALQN
Put plainly: nsRBNS (natural sequence RNA bind-n-seq); RBNS binding buffer (assumed for nsRBNS): 25 mM Tris pH 7.5, 150 mM KCl, 3 mM MgCl2, 0.01% Triton X-100, 500 ug/ml BSA, 20 U/ml SUPERase-In, 4 C; UNK is unkempt and MSI1 is Musashi-1; names of the RNAs are library labels; protein concentration not given here; high values mean tight binding.
Turning to B1, the binding signal stood at 0.827 enrichment R. As for B2, the figure is 0.986 enrichment R.

In turn, B3 showed a binding signal of 0.44 enrichment R.

As for B4, the binding signal worked out at 1.36 enrichment R. B5: the binding signal amounted to 0.53 enrichment R. Regarding B6, the binding signal stood at 0.806 enrichment R. As for B7, the figure is 1.35 enrichment R; as for B8, 0.859 enrichment R; as for B9, 0.84 enrichment R. As for B10, the figure is 0.784 enrichment R; as for B11, 1.98 enrichment R; as for B12, 0.768 enrichment R. As for B13, the figure is 1.02 enrichment R. The molecule B14 gave a binding signal of 2.37 enrichment R. As for B15, the figure is 0.625 enrichment R; as for B16, 0.934 enrichment R; as for B17, 0.378 enrichment R. To B18 belongs 1.21 enrichment R. To B19 belongs 0.485 enrichment R; to B20, 0.659 enrichment R.

Molecule B21 displayed a binding signal of 1.06 enrichment R.

For B22, the binding signal was determined as 0.629 enrichment R.
